± gives the standard deviation of the averaged measurements. This is one part of the list.
tested on: PfAP2-EXP AP2 domain (GST-tagged); test: gcPBM binding intensity (ln(normalized median fluorescence intensity)); higher = stronger DNA binding
Outline: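 An Agilent 4 × 180k array carrying primer-extended double-stranded 36-bp intergenic genomic probes and negative controls received GST-tagged P. falciparum DNA-binding domains expressed in E. coli, about 25 μg on average, for 1 h. The binding buffer contained 1× PBS, 1% milk, 0.2 mg/ml BSA, 0.5% salmon testes DNA and 0.03% Triton X-100. Binding intensity is the top Masliner-normalised natural-log median intensity across replicate spots of either probe orientation, read after Alexa488 anti-GST antibody staining and a 488 nm scan.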

Sequence	gcPBM binding intensity (ln)
TATGTTTTTACATATTGTACATATTCTTGTAATACG [XGTACX_site1179]	8.46 ± 0.29
ATTATAATGTTAATGTGTACATATGATTCCTTAATT [XGTACX_site181]	8.87 ± 0.42
TATGTGTGCAAAAACTGTACACATTAAAGGTATATA [XGTACX_site7627]	8.59 ± 0.25
TAATAACATACAGACACACACGTAAAAGCACGTGTA [CACACA_site4299]	8.54 ± 0.32
TACTTTCAAAAGATCACACATATATATATATATATA [CACACA_site5630]	10.39 ± 0.085
ATGACATGTTCTAAATGTACATTTTTTAACCCTTTT [XGTACX_site1858]	8.77 ± 0.5
ATAAATAAATAAGTACATATATATATGTATATATAT [TGCATGCA_negctrl_site223]	8.775 ± 0.021
TATACAAGTATATAGGTGCATATATAAGTATATATT [GTGCAC_site9994]	8.6 ± 0.11
TATGGTTACATTATATGTACTAAACGAATATTTTTA [XGTACX_site5694]	8.24 ± 0.39
ATATATTATATTATATGTACTTAAAAAAGTGCAAAG [XGTACX_site318]	8.44 ± 0.23
TATATTCAATTTTTGGTGCGTAAATTAATACAAACA [GTGCAC_site9764]	8.74 ± 0.13
AGAGAGAACGGTATAACATGCGATAAATTTTAGAAG [TGCATGCA_site357]	9.01 ± 0.45
TTTTTTCAATAAATAATCGTATATTGAATAATAATA [CACACA_negctrl_site822]	8.3 ± 0.74
TATATGTCCATATTTCCACACACATATTATTTTTAT [CACACA_site9266]	8.82 ± 0.32
CGGACATACTAACGGACACACGTAAGAAAAAAAAAG [CACACA_site4504]	8.89 ± 0.41
ATGCACGGAAAAATATGTACTTAATTTCAATAATAT [XGTACX_site8311]	8.8 ± 0.34
TATTAATTTTTCCTTTTTTTTTTACCCCTTTGTACA [CACACA_negctrl_site947]	8.62 ± 0.55
ATTTTAATTTTGTATACACACATTTGAATTATTAAT [CACACA_site3528]	8.62 ± 0.44
AAATAATACATTCGTACTACACATATATATTAAATA [XGTACX_site7806]	8.56 ± 0.41
TAAAATGTTATAAGAACATGCAATTCCTTTTATTAT [TGCATGCA_site408]	8.26 ± 0.28
AATATATACATATATACACACACATATATATATATA [CACACA_site8907]	10.1 ± 0.42
ATAATATGAGTCCCACAAAATAGACCATACGAATAT [CACACA_negctrl_site50]	8.64 ± 0.34

Sequence	gcPBM binding intensity (ln)
TATAAATTTATACCAGTGCATTTTGAAATATATATA	8.84 ± 0.26
TGGAACCATAAAAAGTGTACACATATAAAAAATATG [XGTACX_site96]	8.62 ± 0.33
AAAAAAAAGTTATATACACACATATAAATATAAATA [CACACA_site6683]	8.5 ± 0.55
TTTTTTTTTTTTTGAACACACATTATTAACTTTTAT [CACACA_site6281]	8.3 ± 0.49
CGCGAACATACATACACACACATATATATATATGTA [CACACA_site205]	8.8 ± 0.54
TATATATTTTATATATGTACATATTTATATGTTTCT [XGTACX_site1818]	8.31 ± 0.34
CATGTAAAATATTAAAGTACATGATTATATATATAT [XGTACX_site7486]	9.76 ± 0.2
AAAAATATTAAAAGGCGTACAATACCTGTATGCAAC [XGTACX_site6069]	8.49 ± 0.23
AGCTAAAATATTTTTGCACACGATTTTTTTTTTTTT [CACACA_site1140]	8.47 ± 0.36
TATATTTATATAATATGTACATATTTTTTAATATTT [XGTACX_site3834]	8.28 ± 0.3
TATTTTATTTTCCGAAGTACAAAAGCAAAAAAAAAC [XGTACX_site103]	8.92 ± 0.41
TTGCATCTATTTTTGAGTACACAATGAGAATAATTA [XGTACX_site7171]	8.51 ± 0.33
AAAAATAAATATACATGTACATAATAATAATATATA [XGTACX_site8359]	8.61 ± 0.28
TTTGAAAAAAAATATTGTACACGTGAATAAAGTATT [XGTACX_site644]	8.96 ± 0.43
TTAAAAAAGTAATTAACACACAATAATGTAATGCAT [CACACA_site4176]	8.58 ± 0.34
TTATTATATATGTTCACATAAATACATAAATATATA [GTGCAC_negctrl_site529]	8.36 ± 0.33
TATATATATATATATATATATATATATATAATTTGA [XGTACX_negctrl_site3]	9.97 ± 0.61
AAAAAAAAAAGACACACACACACATACACATACATA [CACACA_site7362]	8.6 ± 0.58
ACCCAAAATATATTCACACAAAAAATATTAAAAATA [CACACA_site5433]	8.43 ± 0.49
AAGCATCCTACTGATTGTACATATATATATATATAT [XGTACX_site2150]	10.2 ± 0.3
GAGAACATTGATACACGTACATAAGTTATAAGTATT [XGTACX_site7665]	8.71 ± 0.35
AATAAACAAATAAATAAATAAACAGATAAATAAATC [CACACA_negctrl_site920]	8.79 ± 0.32

Sequence	gcPBM binding intensity (ln)
TAATATATATAACAAGTGCAAAAAAATATAGATATT [GTGCAC_site9625]	9.09 ± 0.13
TTAGGTTATAAATACACACACAAAAGAAAAAAAAAA [CACACA_site5625]	8.52 ± 0.54
TTTATTTATATAATTACACACATATATACACAAATG [CACACA_site8903]	8.42 ± 0.44
TATTTAAATTAATATTGTACATATATTTATAATATA [XGTACX_site6109]	8.27 ± 0.37
AAATATATTATATATGCATGCGCCAAGATTTATATA [TGCATGCA_site770]	9.08 ± 0.3
TATATATATTCTTTGTGTACTCATATAAGGGTAGAA [XGTACX_site8121]	8.72 ± 0.27
AATCAATATTATATATGTACTTATTTTCACTTTTGC [XGTACX_site1775]	8.71 ± 0.32
TTTTTAGAAAAGGTTATAAAAAATTAATTGAAAAAA [GTGCAC_negctrl_site289]	8.2 ± 0.45
TTGTCATTATTATATTGTACAATAAGTATTAAAGAA [XGTACX_site1205]	8.64 ± 0.34
AACTGATATTAATTCTGTACCTATACGTTATATGTT [XGTACX_site1003]	8.68 ± 0.48
AAGCGAATCTATATCACACACAAAAAAATCAGACTA [CACACA_site7072]	8.57 ± 0.44
AGTTCAGAATTGAATAGTACATAAATATAACAAAAT [XGTACX_site650]	8.88 ± 0.36
TATGAACATATATATTGTACAAAATTATAATTTCAA [XGTACX_site6406]	8.46 ± 0.4
AAAAGGAAAAATATCACACATATATATATATATATA [CACACA_site5586]	10.2 ± 0.34
ATTATTATACACAAATGTACATGTGAATTTTTTTTC [XGTACX_site6982]	8.59 ± 0.46
AATAAGTAACAAAATACACACATATAGGTAATTATA [CACACA_site6949]	8.66 ± 0.32
ATATATATTTATAGGTGTACAAAATACTATTTTAGG [XGTACX_site8499]	8.62 ± 0.19
GTACGTTAGATATATACACACATACATAATAAAGAA [CACACA_site7327]	8.57 ± 0.099
TTACCCATTCCCTTTACATGCAATTTGTATTAATAA [TGCATGCA_site412]	9.28 ± 0.28
TTAATTCTACTTATTACACACATATTAAGCAAAAAT [CACACA_site4921]	8.43 ± 0.35
ATATGTTCCGAAGGTTGTACACACATAGAAATATAC [XGTACX_site8227]	9.1 ± 0.38
AAAATATATACAATATGTACATATATATATATATAT [XGTACX_site1898]	9.96 ± 0.35

Sequence	gcPBM binding intensity (ln)
TATTTATATTTATACACACACACAAAAAAAAAAAAA [CACACA_site6817]	8.36 ± 0.57
TATATATATATAAAGACACACATCTATAGAATGTTA [CACACA_site2557]	9.8 ± 0.22
TTGTTTTCTTTTTCTTTTCTTTTTCTTTTTTCTTTT [GTGCAC_negctrl_site629]	8.49 ± 0.73
TATATATATATACCTTGTACTTACATTCGCATATAA [XGTACX_site2466]	10.12 ± 0.078
AAAAAAAAAAAAAAAGCACACACACCGATGTGTATA [CACACA_site8224]	8.48 ± 0.092
GTATAATTATGTGCACGTACATATTTTATTATATAT [XGTACX_site8586]	9.05 ± 0.11
CCATTACCATATAAAACACACAAACATACATACATA [CACACA_site5952]	8.7 ± 0.54
ACATAAATATATGACACACACACATATTATATATAT [CACACA_site3065]	8.79 ± 0.16
TACCAAATTTATTCTTGTACATATATATATATATAT [XGTACX_site4832]	10.1 ± 0.4
AATATAGAAATAAATATATCACATTTGTGTTTAAAC [XGTACX_negctrl_site68]	8.27 ± 0.39
TTTATGACTTGAAAAAGTACACATATATTTATGCAA [XGTACX_site5451]	8.39 ± 0.34
GTAAGAAACAGACACACACACATATATATATATATA [CACACA_site794]	10.2 ± 0.24
AATAATTTTATCGGTACACACTGTATGCATAATATT [CACACA_site4364]	8.84 ± 0.47
GAACAGTTTGTTTAGTGTACTTTTTTTTTTTTTTTT [XGTACX_site8881]	8.695 ± 0.078
TTTGATCGATGGATTTAACACACAAAAAAAAAAAAA [CACACA_site9279]	8.31 ± 0.55
CTTAATTTAATGAAATGTACATATAAAAATATTATA [XGTACX_site3303]	8.47 ± 0.31
TCTAATTACAAAAACATACACACAAAAAAAAAAAAA [CACACA_site3783]	8.04 ± 0.73
TCAAAAATAAAGATCACACATATATATATATATATA [CACACA_site4381]	10.2 ± 0.35
ATGTACAAAATAAGCACACACAAAAAAAAAAAAAAT [CACACA_site2998]	8.47 ± 0.5
CCTATAAATGCATTCACACATATATATTTATATTAT [CACACA_site6086]	8.7 ± 0.29
ATGATAAACATGGATACACACATATAGATTGCATAT [CACACA_site6843]	8.56 ± 0.36
ATTTCTCTATCGTAATGTACATAAAAAAGAAAAACA [XGTACX_site6374]	8.71 ± 0.52

Reference: the supplement of paper PMC11417369
